# From the supplement of paper PMC4166925
# ± gives the standard deviation of the averaged measurements. Over roughly 33,000 sequences, “E-score (dimensionless, -0.5 to 0.5)” has its median near -0.049; the highest 2% begin near 0.37. The list shows a part of the results.
# Tested on: T1, PmTbr T-box DNA-binding domain (GST fusion)
# T1 sequence: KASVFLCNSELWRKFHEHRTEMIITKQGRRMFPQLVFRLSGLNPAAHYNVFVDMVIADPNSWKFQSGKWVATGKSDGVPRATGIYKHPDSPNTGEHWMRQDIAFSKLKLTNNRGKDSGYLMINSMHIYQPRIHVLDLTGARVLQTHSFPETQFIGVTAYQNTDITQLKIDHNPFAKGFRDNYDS
# Assay: PBM E-score of 8-mer (E-score (dimensionless, -0.5 to 0.5)); Tbr is Tbrain of the sea star Patiria miniata (Pm) or the sea urchin Strongylocentrotus purpuratus (Sp); higher = stronger binding preference; most listed sequences are background and not binding sites
# Details: the construct has about 5 more residues each side
# How it was run: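 GST-fused Tbr T-box DNA-binding domains (the whole T-box plus about five flanking residues) were expressed in BL21 E. coli at 20 °C and purified by glutathione affinity chromatography. Universal Agilent oligonucleotide arrays were made double-stranded by primer extension, incubated with 200 nM protein in PBS (pH 7.5), then scanned and quantified. Every ungapped 8-mer was scored from probe intensities. The Universal PBM Analysis Suite gave each word an enrichment E-score, averaged over duplicate arrays.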
row,Sequence,PBM E-score of 8-mer
1,GGTGAGAA,0.4754 ± 0.0012
2,ACTCGATC,-0.0969 ± 0.064
3,CAGTTACG,-0.00341 ± 0.027
4,TCCAGAAA,-0.201 ± 0.045
5,ATGCTATC,0.00936 ± 0.033
6,CTAAGTGA,0.225 ± 0.032
7,CTCCTCGC,0.149 ± 0.011
8,ATATGCGG,-0.0966 ± 0.012
9,AGCCGCTC,-0.16 ± 0.073
10,ACGGAGTG,0.164 ± 0.036
11,AGCGCCAT,0.113 ± 0.088
12,CAAGTACC,-0.127 ± 0.046
13,AGGTCGGC,-0.0474 ± 0.007
14,AGATCCCT,-0.0899 ± 0.03
15,AACTCTAG,-0.105 ± 0.007
16,AGCCGCTG,0.0265 ± 0.033
17,CACCTTCA,0.436 ± 0.0071
18,ACCCGTGA,0.242 ± 0.0062
19,ACCACACC,0.361 ± 0.023
20,CTGCTAAC,0.318 ± 0.029
21,GGGACCCC,-0.248 ± 0.055
22,AAGGAGGT,0.246 ± 0.0053
23,CTTCCCTA,-0.216 ± 0.022
24,ACTCCAAA,0.0455 ± 0.096
25,ACCATCCC,-0.0384 ± 0.0051

row,Sequence,PBM E-score of 8-mer
1,AGTTGCCA,0.2348 ± 0.001
2,CCTGTCGA,0.181 ± 0.042
3,CTGGTAAC,0.00756 ± 0.011
4,AAAATGAG,-0.1456 ± 0.00079
5,AATGACGG,-0.0819 ± 0.0024
6,CACAGGGG,0.0438 ± 0.049
7,CACTGTGC,0.08 ± 0.071
8,GGGGAAGA,-0.0502 ± 0.052
9,ATCGCTAG,0.157 ± 0.003
10,TGCGAACA,0.396 ± 0.0075
11,AAGACAGT,0.00362 ± 0.0084
12,AGTAGAAG,-0.0132 ± 0.001
13,ACAGGGGC,-0.13 ± 0.072
14,CCCCGAAC,-0.127 ± 0.0091
15,CAGTGGTA,-0.0733 ± 0.022
16,AAGGGGAA,-0.148 ± 0.05
17,GCACCCAC,0.297 ± 0.044
18,AATCTGGG,-0.0983 ± 0.06
19,ATAAGCGG,-0.112 ± 0.049
20,AACAGACT,-0.257 ± 0.0086
21,AGCTAGGA,-0.0186 ± 0.031
22,ACTAGGAT,-0.134 ± 0.0045
23,CCCGTACC,-0.0866 ± 0.12
24,CAGTTAGC,0.154 ± 0.037
25,AAACTGAG,-0.0926 ± 0.0015

row,Sequence,PBM E-score of 8-mer
1,AACGATCA,-0.0249 ± 0.028
2,GTGGCCGA,0.0278 ± 0.0034
3,AGCAGGAC,-0.0951 ± 0.093
4,GTGGATTA,-0.127 ± 0.0045
5,CACTCAGA,0.112 ± 0.1
6,GATTCTCC,-0.108 ± 0.02
7,TATGTGGA,-0.0333 ± 0.013
8,ATGACCGG,0.0018 ± 0.008
9,AGTATTTC,-0.24 ± 0.015
10,CCCCTGAC,-0.0441 ± 0.039
11,CCCTTCAA,-0.105 ± 0.1
12,AAACTCGT,0.0999 ± 0.0057
13,TAGGAGAA,-0.156 ± 0.045
14,AAATCGGT,-0.0944 ± 0.035
15,ACTCGAGC,-0.3 ± 0.071
16,AACGTTTC,-0.177 ± 0.011
17,GGACGACA,0.0788 ± 0.045
18,CGCAGAAA,-0.0539 ± 0.012
19,GGTAGTGA,0.193 ± 0.015
20,CAGTAAAG,-0.0411 ± 0.0096
21,ATTGGCCC,-0.207 ± 0.014
22,CCGCGGAC,-0.0508 ± 0.069
23,AACTTAAA,-0.0777 ± 0.021
24,ATACTACA,-0.0455 ± 0.042
25,CACCAGCG,0.236 ± 0.0024

row,Sequence,PBM E-score of 8-mer
1,AATGAGAG,-0.317 ± 0.025
2,AACACTGT,0.275 ± 0.0073
3,CTTGCCCA,-0.255 ± 0.011
4,GACGGAAA,-0.0646 ± 0.034
5,ACACGGGG,-0.0262 ± 0.012
6,AGTCAGTG,0.114 ± 0.038
7,AGGAAACC,-0.125 ± 0.031
8,AAATTTCG,-0.127 ± 0.029
9,AGCAGCCT,-0.0537 ± 0.0035
10,GGGTAAAA,-0.317 ± 0.11
11,CCGTAAAA,-0.105 ± 0.11
12,GCATTCGA,-0.0584 ± 0.02
13,CAGCAAAA,-0.169 ± 0.048
14,CCCCCGCG,-0.14 ± 0.16
15,TCGTCTCA,0.0452 ± 0.0029
16,CTCTTACC,-0.225 ± 0.025
17,CACCAACG,0.2 ± 0.036
18,AAAGCTAC,0.0105 ± 0.049
19,CTCCTCTA,0.0746 ± 0.06
20,CTTAAAAC,-0.147 ± 0.058
21,CATTAAAG,-0.132 ± 0.047
22,CGCCGGCG,0.197 ± 0.0099
23,CGCTAGAC,0.0745 ± 0.041
24,ACAACACC,0.435 ± 0.023
25,AATCGGGT,-0.164 ± 0.034

row,Sequence,PBM E-score of 8-mer
1,CAGTCGTA,-0.298 ± 0.004
2,GTCTCGCA,0.262 ± 0.021
3,GAAGTACC,-0.379 ± 0.075
4,GGCCCCCC,-0.276 ± 0.0062
5,GAAATAGA,-0.125 ± 0.036
6,TATAGAAA,-0.229 ± 0.091
7,AAAGTACC,-0.19 ± 0.064
8,AGACCGTC,-0.153 ± 0.041
9,CCTCCGCG,0.0924 ± 0.03
10,ACATAGGC,-0.0488 ± 0.043
11,CCGATGTA,-0.1593 ± 0.00022
12,CTTCTACC,-0.154 ± 0.069
13,ATAGCCAC,-0.00905 ± 0.088
14,CTGCGGGC,-0.0237 ± 0.023
15,CTGCGGCC,-0.291 ± 0.039
16,GTTCGCAA,0.317 ± 0.019
17,AATATCAG,0.0529 ± 0.037
18,ACTATAGT,0.133 ± 0.026
19,ATCGAAAA,-0.034 ± 0.047
20,GCGTCACC,0.34557 ± 9.2e-05
21,CAGAAACG,-0.00987 ± 0.03
22,CTGAAATA,-0.00809 ± 0.053
23,AACCTTCC,-0.196 ± 0.038
24,TAATTACA,-0.0708 ± 0.048
25,AAAGTTTA,-0.12 ± 0.099

row,Sequence,PBM E-score of 8-mer
1,GATGAAAC,-0.0431 ± 0.065
2,CGGGCGCA,-0.0013 ± 0.07
3,GGTTTACA,0.168 ± 0.011
4,AAGGCCTG,-0.262 ± 0.0041
5,AGCGGGGC,-0.0481 ± 0.032
6,ACCATACG,-0.148 ± 0.05
7,AGCGAATG,-0.17 ± 0.021
8,ATTAGCTG,-0.041 ± 0.028
9,AAACATGC,-0.053 ± 0.048
10,AGTAACGC,0.239 ± 0.0096
11,CCATAAGA,-0.177 ± 0.0089
12,CTCATGAG,-0.111 ± 0.035
13,GAACTAGC,0.0984 ± 0.097
14,ATCCAAAA,-0.233 ± 0.056
15,GCTTCAGA,-0.127 ± 0.095
16,AATTGAAT,-0.0845 ± 0.071
17,CCACCACC,0.107 ± 0.044
18,ATCCGCGG,-0.0965 ± 0.013
19,CTACCACC,0.268 ± 0.0074
20,GTGACCCA,-0.0434 ± 0.014
21,CGTGCACG,-0.126 ± 0.035
22,GATGTTTA,-0.114 ± 0.014
23,ATAATAGA,-0.208 ± 0.038
24,CGACCACC,-0.16 ± 0.021
25,ATACACGA,-0.138 ± 0.038

row,Sequence,PBM E-score of 8-mer
1,AGACAGGC,-0.103 ± 0.03
2,AAGGTCCT,-0.0737 ± 0.044
3,AATCGAGT,0.0051 ± 0.016
4,CATACATA,-0.387 ± 0.045
5,CGATACCC,0.00442 ± 0.071
6,AATAACGA,0.131 ± 0.056
7,AGTGTTCG,0.21 ± 0.037
8,TCATAACA,0.1776 ± 0.0013
9,CCTTACGA,-0.143 ± 0.026
10,ATCTCTAA,-0.131 ± 0.051
11,TAAAATTA,-0.194 ± 0.065
12,AGAACCCG,0.111 ± 0.011
13,ATTTATCC,-0.14 ± 0.0033
14,CACATAGA,0.0565 ± 0.011
15,CACTCTCA,0.259 ± 0.044
16,GAAATTAA,-0.113 ± 0.044
17,ACAGATCA,0.119 ± 0.044
18,GGCGTGGA,0.0458 ± 0.046
19,CTCCGTTC,0.169 ± 0.076
20,AATCTAGC,0.123 ± 0.022
21,GCATCAGC,-0.11 ± 0.067
22,TAGCATCA,0.102 ± 0.046
